# Data reported in the supplement of paper PMC4604168 (melanoma cell lines).
# The other results are listed elsewhere or left out. Many values rest on one well or one pass, so single values are uncertain.
# Experiments:
# Experiment in all cases: cell count relative to DMSO control; melanoma cells; higher = more viable cells
# Details in all cases: library dose: standard library concentration; 72 h
# A101D = system: A101D
# A2058 = system: A2058
# A375 = system: A375
# 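Also: cells treated in 1,536-well plates, then fixed and DAPI-stained, with nuclei counted from automated high-throughput microscope images.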
SMILES,cell count (A101D) [%],cell count (A2058) [%],cell count (A375) [%]
"Cc1ccc(Nc2nccc(N(C)c3ccc4c(C)n(C)nc4c3)n2)cc1S(N)(=O)=O [Pazopanib] + CC(C)C[C@H](NC(=O)[C@H](Cc1ccccc1)NC(=O)c1cnccn1)B(O)O [Bortezomib] (first compound 2 µM, partner dose 0.005 µM)",15.8,9.13,81.4
"O=C(/C=C/c1cccnc1)NCCCCC1CCN(C(=O)c2ccccc2)CC1 + C[C@]1(O)C[C@@H](c2nc(-c3ccc4ccc(-c5ccccc5)nc4c3)c3c(N)nccn32)C1 [OSI906] (first compound 0.05 µM, partner dose 2 µM)",115,106,94.7
"Cc1ccc(Nc2nccc(N(C)c3ccc4c(C)n(C)nc4c3)n2)cc1S(N)(=O)=O [Pazopanib] + CO[C@H]1C[C@@H]2CC[C@@H](C)[C@@](O)(O2)C(=O)C(=O)N2CCCC[C@H]2C(=O)O[C@H]([C@H](C)C[C@@H]2CC[C@@H](OCCO)[C@H](OC)C2)CC(=O)[C@H](C)/C=C(\C)[C@@H](O)[C@@H](OC)C(=O)[C@H](C)C[C@H](C)/C=C/C=C/C=C/1C [everolimus] (first compound 2 µM, partner dose 0.1 µM)",95.8,60.9,90.7
"O=C(/C=C/c1cccnc1)NCCCCC1CCN(C(=O)c2ccccc2)CC1 + Nc1ccn([C@@H]2O[C@H](CO)[C@@H](O)C2(F)F)c(=O)n1 [gemcitabine] (first compound 0.05 µM, partner dose 0.002 µM)",76.9,60.8,96.4
"O=C(/C=C/c1cccnc1)NCCCCC1CCN(C(=O)c2ccccc2)CC1 + CN1CCN(c2ccc3nc(-c4c(N)c5c(F)cccc5[nH]c4=O)[nH]c3c2)CC1 [Dovitinib] (first compound 0.05 µM, partner dose 0.5 µM)",51,34.6,84.4
"O=C(/C=C/c1cccnc1)NCCCCC1CCN(C(=O)c2ccccc2)CC1 + Nc1nc(F)nc2c1ncn2[C@@H]1O[C@H](CO)[C@@H](O)[C@@H]1O [fludarabine] (first compound 0.05 µM, partner dose 1 µM)",97.4,98.5,56.2
"CC1(C)CCC(c2ccc(Cl)cc2)=C(CN2CCN(c3ccc(C(=O)NS(=O)(=O)c4ccc(N[C@H](CCN5CCOCC5)CSc5ccccc5)c(S(=O)(=O)C(F)(F)F)c4)cc3)CC2)C1 + Cc1cc(Nc2cc(N3CCN(C)CC3)nc(/C=C/c3ccccc3)n2)n[nH]1 [ENMD2076] (first compound 2 µM, partner dose 0.2 µM)",40.3,84.7,82.4
"CC1(C)CCC(c2ccc(Cl)cc2)=C(CN2CCN(c3ccc(C(=O)NS(=O)(=O)c4ccc(N[C@H](CCN5CCOCC5)CSc5ccccc5)c(S(=O)(=O)C(F)(F)F)c4)cc3)CC2)C1 + Cc1ccc(NC(=O)c2cccc(N(C)C)c2)cc1NC(=O)c1ccc(O)cc1 [ZM336372] (first compound 2 µM, partner dose 10 µM)",32,72.9,76.6
"O=C(/C=C/c1cccnc1)NCCCCC1CCN(C(=O)c2ccccc2)CC1 + NCC(=O)Nc1ccc(-n2nc(C(F)(F)F)cc2-c2ccc3c(ccc4ccccc43)c2)cc1 [OSU03012] (first compound 0.05 µM, partner dose 5 µM)",81.4,79.2,60.1
"O=C(/C=C/c1cccnc1)NCCCCC1CCN(C(=O)c2ccccc2)CC1 + Clc1ccc(Nc2nnc(Cc3ccncc3)c3ccccc23)cc1 [vatalanib] (first compound 0.05 µM, partner dose 10 µM)",85.4,83.6,105
"O=C(/C=C/c1cccnc1)NCCCCC1CCN(C(=O)c2ccccc2)CC1 + COc1cc(Nc2ncc(F)c(Nc3ccc4c(n3)NC(=O)C(C)(C)O4)n2)cc(OC)c1OC [Tamatinib] (first compound 0.05 µM, partner dose 2 µM)",30.5,99.2,122
"CC1(C)CCC(c2ccc(Cl)cc2)=C(CN2CCN(c3ccc(C(=O)NS(=O)(=O)c4ccc(N[C@H](CCN5CCOCC5)CSc5ccccc5)c(S(=O)(=O)C(F)(F)F)c4)cc3)CC2)C1 + CC(=O)O[C@@]12CO[C@@H]1C[C@H](O)[C@@]1(C)C(=O)[C@H](O)C3=C(C)[C@@H](OC(=O)[C@H](O)[C@@H](NC(=O)OC(C)(C)C)c4ccccc4)C[C@@](O)([C@@H](OC(=O)c4ccccc4)[C@H]21)C3(C)C [Docetaxel] (first compound 2 µM, partner dose 0.0005 µM)",17.4,6.41,53.7
"CC1(C)CCC(c2ccc(Cl)cc2)=C(CN2CCN(c3ccc(C(=O)NS(=O)(=O)c4ccc(N[C@H](CCN5CCOCC5)CSc5ccccc5)c(S(=O)(=O)C(F)(F)F)c4)cc3)CC2)C1 + O=C(CCCCCCC(=O)Nc1ccccc1)NO [vorinostat] (first compound 2 µM, partner dose 0.4 µM)",46,94.3,60.7
"O=C(/C=C/c1cccnc1)NCCCCC1CCN(C(=O)c2ccccc2)CC1 + CN(NC(=O)CC(=O)NN(C)C(=S)c1ccccc1)C(=S)c1ccccc1 [STA4783] (first compound 0.05 µM, partner dose 0.03 µM)",72.3,6.42,123
"Cc1ccc(Nc2nccc(N(C)c3ccc4c(C)n(C)nc4c3)n2)cc1S(N)(=O)=O [Pazopanib] + Cc1cn(-c2cc(NC(=O)c3ccc(C)c(Nc4nccc(-c5cccnc5)n4)c3)cc(C(F)(F)F)c2)cn1 [nilotinib] (first compound 2 µM, partner dose 1 µM)",98.8,166,99.9
"Cc1ccc(Nc2nccc(N(C)c3ccc4c(C)n(C)nc4c3)n2)cc1S(N)(=O)=O [Pazopanib] + O=C(O)c1ccc2c(c1)nc(Nc1cccc(Cl)c1)c1ccncc12 [CX4945] (first compound 2 µM, partner dose 2 µM)",70.4,82.4,68
"O=C(/C=C/c1cccnc1)NCCCCC1CCN(C(=O)c2ccccc2)CC1 + CN(c1ncccc1CNc1nc(Nc2ccc3c(c2)CC(=O)N3)ncc1C(F)(F)F)S(C)(=O)=O [PF562271] (first compound 0.05 µM, partner dose 0.4 µM)",104,68.3,78
"CC1(C)CCC(c2ccc(Cl)cc2)=C(CN2CCN(c3ccc(C(=O)NS(=O)(=O)c4ccc(N[C@H](CCN5CCOCC5)CSc5ccccc5)c(S(=O)(=O)C(F)(F)F)c4)cc3)CC2)C1 + CO[C@H]1C[C@@H]2CC[C@@H](C)[C@@](O)(O2)C(=O)C(=O)N2CCCC[C@H]2C(=O)O[C@H]([C@H](C)C[C@@H]2CC[C@@H](OCCO)[C@H](OC)C2)CC(=O)[C@H](C)/C=C(\C)[C@@H](O)[C@@H](OC)C(=O)[C@H](C)C[C@H](C)/C=C/C=C/C=C/1C [everolimus] (first compound 2 µM, partner dose 0.1 µM)",36.6,56.6,61.6
"CC1(C)CCC(c2ccc(Cl)cc2)=C(CN2CCN(c3ccc(C(=O)NS(=O)(=O)c4ccc(N[C@H](CCN5CCOCC5)CSc5ccccc5)c(S(=O)(=O)C(F)(F)F)c4)cc3)CC2)C1 + CC(C)C[C@H](NC(=O)[C@H](Cc1ccccc1)NC(=O)c1cnccn1)B(O)O [Bortezomib] (first compound 2 µM, partner dose 0.005 µM)",7.95,11.4,47.7
"CC1(C)CCC(c2ccc(Cl)cc2)=C(CN2CCN(c3ccc(C(=O)NS(=O)(=O)c4ccc(N[C@H](CCN5CCOCC5)CSc5ccccc5)c(S(=O)(=O)C(F)(F)F)c4)cc3)CC2)C1 + OCc1c[nH]c2ccccc12 [Indole-3-carbinol] (first compound 2 µM, partner dose 4 µM)",45.1,93.6,85.9
